Normalised cell viability data for 25 compounds are collected here from the supplement of paper PMC8285479.

Each structure is given as a SMILES string. Counter-ions that a name gives are not always drawn. ± gives the standard deviation of the averaged measurements. In all, about 1,900 compounds were measured (“normalised cell viability (NPI; 0 = phenylarsine oxide control, 1 = DMSO control)”: median about 1, lowest 2% from about 0.039 on). The list shows a part of the results.

The assay has as its system NCI-H1944. Description: normalised cell viability (NPI; 0 = phenylarsine oxide control, 1 = DMSO control) (fraction of DMSO control); NCI-H1944 is a non-small cell lung cancer line; higher = more viable cells (less compound toxicity). The settings on record: 6 days.
Setting [1] is: glucocorticoid arm: hydrocortisone 2.75 uM co-treatment, compound 1 µM.
Where [2] appears, read: glucocorticoid arm: hydrocortisone 2.75 uM co-treatment, compound 5 µM.
Setting [3] is: glucocorticoid arm: hydrocortisone 2.75 uM pre-treated 2 days and continued, compound 1 µM.
Where [4] appears, read: glucocorticoid arm: hydrocortisone 2.75 uM pre-treated 2 days and continued, compound 5 µM.
Where [5] appears, read: glucocorticoid arm: vehicle, compound 1 µM.
The mark [6] stands for this setting: glucocorticoid arm: vehicle, compound 5 µM.
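Also: CTB read-out in 384-well plates, mean of triplicate wells, normalised per plate against 1 µM phenylarsine oxide and 0.1% DMSO, compounds added 24 h after seeding.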

Regarding `CC(=O)NCCc1c[nH]c2ccccc12` [N-Acetyltryptamine], the normalised cell viability under setting [1] is 0.992 ± 0.0076; the normalised cell viability under setting [2] amounted to 0.9637 ± 0.0081; the normalised cell viability under setting [3] was determined as 0.981 ± 0.008; the normalised cell viability under setting [4] was 0.9655 ± 0.0064; the normalised cell viability under setting [5] is 0.972 ± 0.014; the normalised cell viability under setting [6] was determined as 0.9783 ± 0.0058.
On to `C=CCN1CC[C@]23CCCC[C@H]2[C@H]1Cc1ccc(O)cc13` [Levallorphan tartrate], for which the normalised cell viability amounted to 1 ± 0.0089 under setting [1]; 1 ± 0.023 under setting [2]; 1.003 ± 0.0058 under setting [3]; 1.06 ± 0.064 under setting [4]; 0.9917 ± 0.0025 under setting [5]; 0.863 ± 0.23 under setting [6].
Turning to `CCCN1CC[C@@H]2c3cc(O)ccc3CC[C@@H]21` (racemic) [cis(+/-)-8-OH-PBZI hydrobromide], the normalised cell viability under setting [1] is 0.993 ± 0.011; the normalised cell viability under setting [2] amounted to 0.975 ± 0.021; the normalised cell viability under setting [3] came to 1.01; the normalised cell viability under setting [4] came to 1.02 ± 0.092; the normalised cell viability under setting [5] worked out at 0.9937 ± 0.0071; the normalised cell viability under setting [6] was found to be 1.007 ± 0.0058.
Take `Cc1cc2c(C(C)C)c(O)c(O)c(C=O)c2c(O)c1-c1c(C)cc2c(C(C)C)c(O)c(O)c(C=O)c2c1O`: the normalised cell viability was determined as 0.988 ± 0.015 under setting [1]; 0.618 ± 0.12 under setting [2]; 0.99 ± 0.01 under setting [3]; 0.814 ± 0.04 under setting [4]; 0.9927 ± 0.0075 under setting [5]; 0.8493 ± 0.0076 under setting [6].
As to `O=c1[nH]c2ccccc2n1C1CCN(CCCC(c2ccc(F)cc2)c2ccc(F)cc2)CC1` [Pimozide], the normalised cell viability runs as follows: under setting [1], 1.017 ± 0.0058; under setting [2], 1.04 ± 0.021; under setting [3], 1.02; under setting [4], 1.04 ± 0.01; under setting [5], 1.013 ± 0.0058; under setting [6], 1.02 ± 0.017.
Consider `CN1CCN(c2nc3ccccc3nc2Cl)CC1`, for which the normalised cell viability under setting [1] stood at 1.027 ± 0.0058; the normalised cell viability under setting [2] is 0.999 ± 0.0096; the normalised cell viability under setting [3] was 1.003 ± 0.0058; the normalised cell viability under setting [4] worked out at 1.01; the normalised cell viability under setting [5] was 1.007 ± 0.0058; the normalised cell viability under setting [6] worked out at 1.01.
Regarding `CN(C)C(=O)Oc1ccc[n+](C)c1` [Pyridostigmine Bromide], the normalised cell viability runs as follows: under setting [1], 0.9867 ± 0.0038; under setting [2], 0.9567 ± 0.0076; under setting [3], 1.001 ± 0.009; under setting [4], 0.978 ± 0.016; under setting [5], 0.983 ± 0.01; under setting [6], 0.998 ± 0.0017.
Consider `CN(C)C(=O)Oc1ccc[n+](C)c1` [Pyridostigmine bromide], for which the normalised cell viability reads like this: under setting [1], 1.007 ± 0.0058; under setting [2], 1.01 ± 0.015; under setting [3], 1.01 ± 0.026; under setting [4], 1.01 ± 0.01; under setting [5], 1.007 ± 0.0058; under setting [6], 0.999 ± 0.01.
With `N[C@H](C(=O)O)c1cc(O)no1` (racemic) [(±)-Ibotenic acid], the normalised cell viability is 1.002 ± 0.0072 under setting [1]; 1 ± 0.032 under setting [2]; 0.991 ± 0.024 under setting [3]; 1.04 ± 0.096 under setting [4]; 0.9837 ± 0.0055 under setting [5]; 0.987 ± 0.012 under setting [6].
Consider `CCc1c(C(=O)OC)ncc2[nH]c3cc(OC)c(OC)cc3c12` [Methyl 6,7-dimethoxy-4-ethyl-beta-carboline-3-carboxylate], for which the normalised cell viability under setting [1] is 1.01 ± 0.016; the normalised cell viability under setting [2] came out at 1.023 ± 0.0058; the normalised cell viability under setting [3] stood at 1.01 ± 0.01; the normalised cell viability under setting [4] turned out to be 1.03 ± 0.01; the normalised cell viability under setting [5] was 0.9997 ± 0.0091; the normalised cell viability under setting [6] was 1.003 ± 0.0058.
Turning to `N#CC(C#N)=Cc1ccc([N+](=O)[O-])c(O)c1` [Tyrphostin AG 126], the normalised cell viability under setting [1] worked out at 1.007 ± 0.0058; the normalised cell viability under setting [2] was found to be 0.988 ± 0.035; the normalised cell viability under setting [3] was 0.997 ± 0.015; the normalised cell viability under setting [4] is 1.02 ± 0.01; the normalised cell viability under setting [5] amounted to 1.013 ± 0.0058; the normalised cell viability under setting [6] stood at 1.01 ± 0.01.
For `O=S1(=O)N(CCN2CC=C(c3c[nH]c4cc(F)ccc34)CC2)c2cccc3c2N1CCC3`, the normalised cell viability runs as follows: under setting [1], 0.9817 ± 0.0072; under setting [2], 0.932 ± 0.027; under setting [3], 0.9923 ± 0.0076; under setting [4], 1.05 ± 0.092; under setting [5], 0.9943 ± 0.0032; under setting [6], 1.002 ± 0.0076.
With `CCN(CC)C(=O)c1ccc(C2=CC3(CCNCC3)Oc3cccc(O)c32)cc1`, the normalised cell viability is, setting by setting: under setting [1], 1.01; under setting [2], 1.04 ± 0.015; under setting [3], 1.01 ± 0.019; under setting [4], 1.053 ± 0.0058; under setting [5], 1.01 ± 0.01; under setting [6], 1.01.
As to `CCn1cnc2c(Nc3cccc(Cl)c3)nc(N[C@@H]3CCCC[C@@H]3N)nc21`, the normalised cell viability by setting is: under setting [1], 0.783 ± 0.025; under setting [2], 0.0569 ± 0.018; under setting [3], 1.01 ± 0.011; under setting [4], 0.182 ± 0.0028; under setting [5], 0.321 ± 0.043; under setting [6], 0.0192 ± 0.0037.
In the case of `Clc1ccc(N2CCN(Cc3c[nH]c4ncccc34)CC2)cc1` [L-745,870 hydrochloride], the normalised cell viability came to 0.9937 ± 0.0067 under setting [1]; 0.924 ± 0.025 under setting [2]; 1.01 ± 0.015 under setting [3]; 1.04 ± 0.058 under setting [4]; 1.005 ± 0.0081 under setting [5]; 1.01 ± 0.011 under setting [6].
For `O=c1[nH]c2ccc(Cl)cc2c(N[C@@H]2CN3CCC2CC3)c1-c1nc2ccccc2[nH]1`, the normalised cell viability runs as follows: under setting [1], 0.43 ± 0.0081; under setting [2], 0.0244 ± 0.0034; under setting [3], 0.717 ± 0.02; under setting [4], 0.0576 ± 0.015; under setting [5], 0.0195 ± 0.0053; under setting [6], 0.00294 ± 0.0014.
As to `CNCC(O)c1ccc(O)cc1` (stereo not given) [Synephrine HCl], the normalised cell viability by setting is: under setting [1], 1 ± 0.0095; under setting [2], 1.04 ± 0.01; under setting [3], 1 ± 0.019; under setting [4], 1.05 ± 0.011; under setting [5], 1.007 ± 0.0058; under setting [6], 0.9953 ± 0.0072.
`CNCC(O)c1ccc(O)cc1` (stereo not given) [Synephrine]: the normalised cell viability runs as follows: under setting [1], 1.01 ± 0.01; under setting [2], 1.04 ± 0.02; under setting [3], 1.013 ± 0.0058; under setting [4], 1.04; under setting [5], 1.01; under setting [6], 1.001 ± 0.0076.
With `C#CCOC(=O)C1=CCCN(C)C1` [Arecaidine propargyl ester hydrobromide], the normalised cell viability was determined as 0.9933 ± 0.0059 under setting [1]; 1.013 ± 0.0058 under setting [2]; 0.982 ± 0.0053 under setting [3]; 0.998 ± 0.032 under setting [4]; 0.987 ± 0.0044 under setting [5]; 0.9863 ± 0.0055 under setting [6].
As to `O=C(Cc1ccc(Cl)c(Cl)c1)N1CCCCC1CN1CCCC1` (stereo not given), the normalised cell viability was found to be 0.9847 ± 0.0031 under setting [1]; 0.965 ± 0.016 under setting [2]; 1 ± 0.018 under setting [3]; 1.01 ± 0.013 under setting [4]; 0.9753 ± 0.0031 under setting [5]; 0.9723 ± 0.0075 under setting [6].
On to `O=C(OC1CCN(CCCl)CC1)C(c1ccccc1)c1ccccc1` [4-Diphenylacetoxy-N-(2-chloroethyl)piperidine hydrochloride], for which the normalised cell viability runs as follows: under setting [1], 1 ± 0.022; under setting [2], 0.926 ± 0.026; under setting [3], 1.02 ± 0.021; under setting [4], 0.962 ± 0.033; under setting [5], 1.007 ± 0.0058; under setting [6], 1.01.
In the case of `CC(C)C[C@H]1C(=O)N2CCC[C@H]2[C@]2(O)O[C@](NC(=O)[C@@H]3C=C4c5cccc6[nH]c(Br)c(c56)C[C@H]4N(C)C3)(C(C)C)C(=O)N12` [(+)-Bromocriptine methanesulfonate], the normalised cell viability under setting [1] was found to be 1.005 ± 0.0081; the normalised cell viability under setting [2] is 1.02 ± 0.015; the normalised cell viability under setting [3] amounted to 1.003 ± 0.0061; the normalised cell viability under setting [4] was 1.01 ± 0.017; the normalised cell viability under setting [5] is 0.9857 ± 0.007; the normalised cell viability under setting [6] is 1.003 ± 0.0058.
On to `c1ccc(CCCN2CCN(CCOC(c3ccccc3)c3ccccc3)CC2)cc1`, for which the normalised cell viability runs as follows: under setting [1], 0.952 ± 0.0092; under setting [2], 0.893 ± 0.03; under setting [3], 0.987 ± 0.007; under setting [4], 1.02 ± 0.011; under setting [5], 1.007 ± 0.0058; under setting [6], 1.01 ± 0.012.
Consider `C=CCN1CC[C@]23c4c5ccc(O)c4O[C@H]2/C(=N/N=C2\CC[C@@]4(O)[C@H]6Cc7ccc(O)c8c7[C@@]4(CCN6CC=C)[C@H]2O8)CC[C@@]3(O)[C@H]1C5` [Naloxonazine dihydrochloride], for which the normalised cell viability is 0.9893 ± 0.008 under setting [1]; 1.03 ± 0.02 under setting [2]; 1 ± 0.01 under setting [3]; 1.03 ± 0.064 under setting [4]; 0.9877 ± 0.0015 under setting [5]; 1.01 ± 0.01 under setting [6].
Turning to `COc1cc(C(O)CN)ccc1O` (racemic) [(±)-Normetanephrine hydrochloride], the normalised cell viability is 0.9973 ± 0.0025 under setting [1]; 1.01 ± 0.021 under setting [2]; 1.01 ± 0.01 under setting [3]; 0.867 ± 0.27 under setting [4]; 0.9953 ± 0.0045 under setting [5]; 1 ± 0.016 under setting [6].
